# Inconclusive means that the source gave no clear call. Such entries were picked first, then a sample of the others. For some of these results: No potency is given beside an inconclusive call; the fits are too rough. Active and inactive are the calls of the source. Unless noted, calls come from the whole dose curve; as a rule, active = well fitted curve in the direction sought with a large enough effect; inconclusive = small, poorly fitted or top-dose-only effect, or another doubt; inactive = no such curve, though single readings can be large; an effect the other way counts as inactive or inconclusive.
# Experiments:
# [1] = system: Nanoluciferase (engineered Oplophorus gracilirostris luciferase); assay: Primary Nanoluciferase (NLuc) qHTS assay for identification of artifact compounds. (AID 1845222);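 note: NLuc secreted into diluted conditioned medium of S16 cells; potency is the fitted concentration of half-maximal effect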
# In short: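 Using secreted nanoluciferase in S16 culture medium (0.22 um filtered, 1:55 dilution), compounds were preincubated 15 min at RT. Signal was generated with Nano-Glo reagent (1:100) over 5 min.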
# [2] = system: MCC-26; assay: qHTS assay to identify novel small-molecules to repurpose for Merkel cell carcinoma treatment (AID 1296009); details: MCC and control cell lines, CellTiter-Glo viability, 72 h; activity change, negative = cytotoxicity: at 46 µM (top of the series); note: potency is the fitted concentration of half-maximal effect; nearly all actives have a fitted effect of over 60% in size
# In short: (§1)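 Viability readout: ATP luminescence (CellTiter-Glo) after 72 hr drug exposure at 37 degree celsius. Dose-response format was 8 points for NPC and 11 points for MIPE; data normalized to in-plate controls.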
# [3] = qHTS of pediatric cancer cell lines to identify multiple opportunities for drug repurposing: Confirmatory screen for DAOY cells (AID 1347114); note: potency is the fitted concentration of half-maximal effect; nearly all actives have a fitted effect of over 65% in size
# In short: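 Viability measured as metabolically active cells via CellTiter-Glo luminescence following 48 hours of compound exposure, 11-point dilutions in confirmatory testing. 500-1,000 cells/well plated 5 hours before dosing; controls were DMSO and 2.3 µM bortezomib.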
# [4] = qHTS of pediatric cancer cell lines to identify multiple opportunities for drug repurposing: Confirmatory screen for Rh18 cells (AID 1347125); note: potency is the fitted concentration of half-maximal effect; nearly all actives have a fitted effect of over 55% in size
# In short: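 Cells (500-1,000/well) in growth media were settled 5 h at 37 degrees C, then given compounds for 48 h. Viability was read as CellTiter-Glo luminescence. Primary runs used MIPE at 11 points (0.78 nM-46 µM) and NPC at 8 points (0.59 nM-46 µM); follow-ups used 11 points.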
# [5] = Quantitative High-Throughput drug screen in 47 multiple myeloma cell lines against the NCATS MIPE library collection: KHM11_PLB cell viability assay (AID 1918962); details: KHM11 myeloma cell viability, CellTiter-Glo ATP luminescence, 48 h; viability, % of DMSO control: at 45.8 µM (top of the series); note: potency is the fitted concentration of half-maximal effect; nearly all actives have a fitted effect of over 35% in size
# In short: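 qHTS of the MIPE 4.0 collection: 500 myeloma cells/well, 48 h drug exposure at 37C in 5% CO2, then CellTiter-Glo for 5 min at room temperature before luminescence reading.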
# [6] = Quantitative High-Throughput drug screen in 47 multiple myeloma cell lines against the NCATS MIPE library collection: MMM1_PLB cell viability assay (AID 1918976); note: potency is the fitted concentration of half-maximal effect; nearly all actives have a fitted effect of over 35% in size
# In short: (§2)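 qHTS format: cells plated (500/well), pin-dosed with MIPE 4.0 compounds, kept 48 h at 37 °C. Readout was CellTiter-Glo luminescence, median RLU.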
# [7] = Quantitative High-Throughput drug screen in 47 multiple myeloma cell lines against the NCATS MIPE library collection: MOLP8_DSMZ cell viability assay (AID 1918977); note: nearly all actives have a fitted effect of over 45% in size; note: potency is the fitted concentration of half-maximal effect
# In short: as §2
# [8] = Quantitative High-Throughput drug screen in 47 multiple myeloma cell lines against the NCATS MIPE library collection: LP1_DSMZ cell viability assay (AID 1918982); note: potency is the fitted concentration of half-maximal effect; nearly all actives have a fitted effect of over 35% in size
# In short: as §2
# [9] = Quantitative High-Throughput drug screen in 47 multiple myeloma cell lines against the NCATS MIPE library collection: L363_DSMZ cell viability assay (AID 1918984); details: L363 myeloma viability, CellTiter-Glo ATP luminescence, 48 h; viability (% of control): at 45.8 µM (top of the series); note: nearly all actives have a fitted effect of over 40% in size; note: potency is the fitted concentration of half-maximal effect
# In short: as §2
# [10] = Quantitative High-Throughput drug screen in 47 multiple myeloma cell lines against the NCATS MIPE library collection: U266_ATCC cell viability assay (AID 1919864); note: nearly all actives have a fitted effect of over 35% in size; note: potency is the fitted concentration of half-maximal effect
# In short: as §2
# [11] = Quantitative High-Throughput drug screen in 47 multiple myeloma cell lines against the NCATS MIPE library collection: UTMC2_PLB cell viability assay (AID 1919868); details: CellTiter-Glo ATP luminescence, 48 h; viability (% of DMSO control): at 45.8 µM (top of the series); note: nearly all actives have a fitted effect of over 55% in size; note: potency is the fitted concentration of half-maximal effect
# In short: as §2
# [12] = qHTS for identification of novel therapeutic agents for treatment of microphthalmiaassociated transcription factor (MiT) renal cell carcinoma (RCC) (AID 1963991; calls by dose curve; note: potency is the fitted concentration of half-maximal effect); details: TFE3-RCC UOK109 viability, CellTiter-Glo, 48 h; active = Z-AUC below -0.8 in all three lines
# In short: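 Three TFE3-fusion RCC lines (UOK109, UOK124, UOK145), 500 cells/well in complete medium, were treated with MIPE 4.0 compounds for 48 hours at 37 C. Viability was by CellTiter-Glo luminescence, normalized to DMSO (100%) and empty wells (0%); curves fitted over 11 concentrations.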
# [13] = system: MCC-13; assay: qHTS assay to identify novel small-molecules to repurpose for Merkel cell carcinoma treatment (AID 1296009); details: MCC and control cell lines, CellTiter-Glo viability, 72 h; series mostly up to 46 µM; note: potency is the fitted concentration of half-maximal effect; nearly all actives have a fitted effect of over 60% in size
# In short: as §1
# [14] = system: MKL-2; assay: as above; details: MCC and control cell lines, CellTiter-Glo viability, 72 h; activity change, negative = cytotoxicity: at 46 µM (top of the series)
# In short: as §1
# [15] = Quantitative High-Throughput drug screen in 47 multiple myeloma cell lines against the NCATS MIPE library collection: KMS20_JCRB cell viability assay (AID 1918973); details: CellTiter-Glo ATP, 48 h; viability (% of DMSO): at 45.8 µM (top of the series); note: nearly all actives have a fitted effect of over 45% in size; note: potency is the fitted concentration of half-maximal effect
# In short: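 Myeloma cell lines, 500 cells per well, exposed to MIPE 4.0 library compounds for 48 h at 37C, 5% CO2. Viability from ATP by CellTiter-Glo luminescence; normalised to DMSO (100%) and media-only (0%) wells.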
# [16] = Quantitative High-Throughput drug screen in 47 multiple myeloma cell lines against the NCATS MIPE library collection: OCIMY1_PLB cell viability assay (AID 1918979); note: nearly all actives have a fitted effect of over 35% in size; note: potency is the fitted concentration of half-maximal effect
# In short: as §2
# [17] = target: Glutathione peroxidase 1 (Homo sapiens) (UniProt P07203); assay: Primary qHTS Assay for Inhibitors of Recombinant Selenoprotein Glutathione Peroxidase 1 (GPX1) (AID 1845191); details: activity, negative = inhibition: at 48.8 µM (top of the series); note: nearly all actives have a fitted effect of over 65% in size; note: potency is the fitted concentration of half-maximal effect
# Sequence of UniProt P07203 (P07203 whole entry, looked up): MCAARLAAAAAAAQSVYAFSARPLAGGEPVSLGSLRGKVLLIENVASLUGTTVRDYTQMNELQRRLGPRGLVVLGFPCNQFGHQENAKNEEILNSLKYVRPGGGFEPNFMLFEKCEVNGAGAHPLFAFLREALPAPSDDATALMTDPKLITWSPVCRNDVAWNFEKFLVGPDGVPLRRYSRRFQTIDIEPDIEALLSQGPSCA
# In short: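 GPX1 10 nM, GR 100 nM, GSH 1 mM, NADPH 0.5 mM, CHP 0.5 mM (final). 30-min cpd preincubation, RT. Ex340/Em450 read t=0, t=15 min.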
# [18] = target: Calcium and integrin-binding protein 1 (Homo sapiens) (UniProt Q99828); assay: Primary qHTS for Identification of Calcium Integrin Binding Protein 1 (CIB1) Competitor (AID 1508620); note: potency is the fitted concentration of half-maximal effect
# Sequence of UniProt Q99828 (Q99828 whole entry, looked up): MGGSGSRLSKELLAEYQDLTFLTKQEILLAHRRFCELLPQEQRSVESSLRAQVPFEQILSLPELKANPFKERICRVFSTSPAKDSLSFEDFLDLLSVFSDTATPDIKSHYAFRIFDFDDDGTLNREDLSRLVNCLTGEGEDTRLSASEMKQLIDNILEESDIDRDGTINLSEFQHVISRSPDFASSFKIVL
# In short: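 Fluorescence polarization competition: CIB1-GST (1 uM final) preincubated with compound 15 min at room temperature, then FITC-labeled alphaIIb peptide (100 nM final) added for another 15 min. Polarization read at Ex 480/Em 540.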
# [19] = system: TAB165; assay: qHTS profiling for inhibitors of Plasmodium falciparum proliferation (AID 504749);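 note: 0% = DMSO vehicle and full inhibition = artemisinin control; nearly all actives have a fitted effect of over 60% in size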; details: P. falciparum in erythrocytes, SYBR Green DNA, 72 h; series mostly up to 28.7 µM
# In short: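 Quantitative HTS: compounds pinned into medium, infected erythrocytes added (0.3% parasitemia, 2.5% hematocrit), 72 h culture at 37 C under 5% CO2. Saponin/Triton lysis with SYBR Green I, overnight RT, then fluorescence read.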
# [20] = Drug repurposing screens with cells derived from glioblastoma tumor samples (AID 1345199); details: GBM patient neurospheres viability, ATP luminescence, 48 h; Potency: tumour line A unless noted; activity, negative = cell killing: at 46 µM (top of the series), tumour line A unless noted; note: potency is the fitted concentration of half-maximal effect; nearly all actives have a fitted effect of over 40% in size
# In short: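 Primary testing used CD133+ neurospheres from four GBM patients, seven concentrations, 48 h exposure and ATP-based viability; confirmation added three slower-growing patient lines.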
# Tags give direction and shape of the fitted curve.
structure (smiles),measurement,setting,value
CCC(=O)NS(=O)(=O)c1ccc(-c2c(-c3ccccc3)noc2C)cc1,Potency,[1],"inconclusive [inhibitor, single point]"
O=C(Nc1ccc(Cl)cc1)Nc1ccc(Cl)c(C(F)(F)F)c1,Potency,[2],"inconclusive [inhibitor, single point]"
COC(=O)Nc1ccc(-c2nc(N3CCOCC3)c3cnn(C4CCN(Cc5cccnc5)CC4)c3n2)cc1,Potency,[3],"inconclusive [cytotoxic, partial curve, poor fit]"
same,Potency,[4],"inconclusive [cytotoxic, partial curve]"
same,Potency,[5],active: 0.059 µM
same,Potency,[6],active: 0.0833 µM
same,Potency,[7],active: 0.059 µM
same,Potency,[8],"inconclusive [cytotoxic, partial curve]"
same,Potency,[9],inactive
same,Potency,[10],active: 18.7 µM
same,viability (% of DMSO control),[11],inconclusive: 4.4% [cytotoxic]
same,Potency,[12],"inconclusive [falling, partial curve]"
same,Potency,[13],active: 14.8 µM
same,Potency,[14],"inconclusive [inhibitor, partial curve, poor fit]"
CC(C=CC1=C(C)CCCC1(C)C)=CC=CC(C)=CC(=O)Nc1ccc(O)cc1,Potency,[4],active: 42.7 µM
same,Potency,[15],active: 15.2 µM
same,Potency,[6],active: 21.5 µM
same,Potency,[7],"inconclusive [cytotoxic, full curve]"
same,Potency,[16],active: 21.5 µM
same,Potency,[9],"inconclusive [cytotoxic, full curve]"
same,Potency,[10],active: 38.2 µM
same,Potency,[12],"inconclusive [falling, partial curve]"
C[C@@H]1COCCN1c1cc(C2(S(C)(=O)=O)CC2)nc(-c2cccc3[nH]ccc23)n1,Potency,[17],"inconclusive [inhibitor, single point]"
C[C@H](Nc1ncnc2nc[nH]c12)c1cc2cccc(Cl)c2c(=O)n1-c1ccccc1,Potency,[1],"inconclusive [inhibitor, partial curve, poor fit]"
C=CC(=O)Nc1cccc(Oc2nc(Nc3ccc(N4CCN(C)CC4)cc3)ncc2Cl)c1,Potency,[4],"inconclusive [cytotoxic, full curve, poor fit]"
same,Potency,[18],"inconclusive [inhibitor, partial curve, poor fit]"
same,Potency,[5],active: 16.6 µM
same,Potency,[15],active: 1.87 µM
same,Potency,[6],active: 23.5 µM
same,Potency,[7],"inconclusive [cytotoxic, full curve, poor fit]"
same,Potency,[8],active: 16.6 µM
same,Potency,[10],"inconclusive [cytotoxic, single point]"
same,Potency,[12],active: 0.833 µM
Cc1noc(-c2ccc(-c3ccc(CC(=O)O)cc3)cc2)c1NC(=O)O[C@H](C)c1ccccc1Cl,Potency,[1],active: 9.53 µM
CN(C)c1nc(NC2CCC(NC(=O)c3ccc(F)c(F)c3)CC2)nc2ccccc12 (stereo not given),Potency,[17],"inconclusive [inhibitor, partial curve, poor fit]"
COCCNCc1ccc(-c2cc3nccc(Oc4ccc(NC(=S)NC(=O)Cc5ccc(F)cc5)cc4F)c3s2)nc1,Potency,[18],inactive
CCCc1[nH]nc2c1C(c1cc(Cl)cc(Cl)c1O)C(C#N)=C(N)O2 (stereo not given),Potency,[18],"inconclusive [inhibitor, partial curve, poor fit]"
C[C@@H]1CCNC(=O)c2cc3ccc(C(=O)Nc4nc5ccccc5n4CCCN(C)C)cc3n21,Potency,[17],inactive
O=C(c1ccc(F)cc1)N1CCC[C@H](c2nc(-c3ccc(F)cc3)no2)C1,Potency,[5],"inconclusive [cytotoxic, full curve, poor fit]"
same,Potency,[15],inactive
same,Potency,[6],"inconclusive [cytotoxic, single point]"
same,Potency,[7],inactive
same,Potency,[16],inactive
same,Potency,[9],inactive
same,Potency,[10],inactive
same,Potency,[11],"inconclusive [cytotoxic, partial curve, poor fit]"
CNC(=O)c1ccc(Nc2cc(Nc3ccccc3S(=O)(=O)C(C)C)c3cc[nH]c3n2)nc1,Potency,[5],active: 0.833 µM
same,Potency,[7],active: 10.5 µM
same,Potency,[16],"inconclusive [cytotoxic, partial curve, poor fit]"
same,Potency,[8],"inconclusive [cytotoxic, partial curve, poor fit]"
same,Potency,[12],"inconclusive [falling, partial curve]"
same,Potency,[13],"inconclusive [inhibitor, partial curve]"
same,Potency,[2],"inconclusive [inhibitor, partial curve]"
Nc1ncnc2c1c(-c1cnc3[nH]ccc3c1)nn2C1CCCC1,Potency,[3],"inconclusive [cytotoxic, partial curve, poor fit]"
same,Potency,[5],active: 0.296 µM
same,Potency,[8],active: 0.148 µM
same,Potency,[9],active: 0.0935 µM
same,Potency,[11],active: 0.526 µM
same,Potency,[12],active: 0.264 µM
same,Potency,[13],active: 4.18 µM
same,Potency,[14],"inconclusive [inhibitor, full curve]"
C#C[C@]1(O)CC[C@H]2[C@@H]3CCc4cc(OC5CCCC5)ccc4[C@H]3CC[C@@]21C,Potency,[19],inactive
same,Potency,[20],active: 4.47 µM
same,Potency,[14],"inconclusive [inhibitor, single point]"
CC(C)c1nc(-c2ccc(NC(=O)Nc3cccc(C(F)(F)F)c3)c3ccccc23)c2c(N)nccn12,Potency,[18],inactive
O=c1[nH]sc2cc(Cl)ccc12,Potency,[3],"inconclusive [cytotoxic, partial curve]"
same,Potency,[4],"inconclusive [cytotoxic, partial curve]"
same,Potency,[18],active: 3.55 µM
same,Potency,[13],active: 6.68 µM
same,Potency,[2],"inconclusive [inhibitor, single point]"

# From PubChem BioAssay (NCATS)
